# The sample as a whole holds a higher share of the strongest signals than the screen did.
# Columns and labels:
# Test in all cases: glycan array binding signal (z-score within array); higher = stronger binding
# Conditions in all cases: glycan notation: IUPAC condensed, linker removed
# [1] = system: Neu5Ac(a2-3)Gal(b1-4)GlcNAc(b1-2)Man(a1-3)[Neu5Ac(a2-3)Gal(b1-4)GlcNAc(b1-2)Man(a1-6)]Man(b1-4)GlcNAc(b1-4)[Fuc(a1-6)]GlcNAc
# Procedure, shortened: (§1)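 The binding signal is a Z-score computed within each array and averaged over linkers. Arrays of the same protein sequence at different concentrations or buffers were also averaged together. Data originate from 3228 arrays in the Consortium for Functional Glycomics database, kept only where the protein sequence was available.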
# [2] = system: Neu5Ac(a2-3)Gal(b1-4)GlcNAc(b1-3)Gal(b1-4)GlcNAc(b1-2)Man(a1-3)[Neu5Ac(a2-3)Gal(b1-4)GlcNAc(b1-3)Gal(b1-4)GlcNAc(b1-2)Man(a1-6)]Man(b1-4)GlcNAc(b1-4)GlcNAc
# Procedure, shortened: as §1
# [3] = system: Neu5Ac(a2-3)Gal(b1-4)GlcNAc(b1-2)Man(a1-3)[Neu5Ac(a2-6)Gal(b1-4)GlcNAc(b1-2)Man(a1-6)]Man(b1-4)GlcNAc(b1-4)GlcNAc
# Procedure, shortened: as §1
# [4] = system: Neu5Ac(a2-3)Gal(b1-4)GlcNAc6S
# Procedure, shortened: as §1
# [5] = system: Neu5Ac(a2-3)Gal(b1-4)GlcNAc(b1-2)Man
# Procedure, shortened: as §1
# [6] = system: Neu5Ac(a2-3)Gal(b1-4)GlcNAc(b1-2)[Neu5Ac(a2-3)Gal(b1-4)GlcNAc(b1-6)]Man(a1-6)[Neu5Ac(a2-3)Gal(b1-4)GlcNAc(b1-2)Man(a1-3)][GlcNAc(b1-4)]Man(b1-4)GlcNAc(b1-4)GlcNAc
# Procedure, shortened: as §1
# [7] = system: Neu5Ac(a2-3)Gal(b1-4)GlcNAc(b1-3)Gal(b1-4)GlcNAc(b1-3)[Neu5Ac(a2-3)Gal(b1-4)GlcNAc(b1-3)Gal(b1-4)GlcNAc(b1-6)]GalNAc
# Procedure, shortened: as §1
# [8] = system: Neu5Ac(a2-3)Gal(b1-4)GlcNAc(b1-6)GalNAc
# Procedure, shortened: as §1
# [9] = system: Neu5Ac(a2-3)Gal(b1-4)GlcNAc(b1-3)Gal(b1-4)GlcNAc(b1-6)[Gal(b1-3)]GalNAc
# Procedure, shortened: as §1
# [10] = system: Neu5Ac(a2-3)Gal(b1-4)GlcNAc(b1-3)[Neu5Ac(a2-3)Gal(b1-4)GlcNAc(b1-6)]GalNAc
# Procedure, shortened: as §1
# [11] = system: Neu5Ac(a2-3)Gal(b1-4)GlcNAc(b1-3)GalNAc
# Procedure, shortened: as §1
# [12] = system: Neu5Ac(a2-3)Gal(b1-4)GlcNAc(b1-6)[Neu5Ac(a2-3)Gal(b1-3)]GalNAc
# Procedure, shortened: as §1
substance,measurement,setting,value
Meso764 (Homo sapiens) (chain not printed),glycan array binding signal (z-score),[1],0.133
same,glycan array binding signal (z-score),[2],-0.377
M-Ficolin A256V (Homo sapiens) (chain not printed),glycan array binding signal (z-score),[3],-0.088
M-Ficolin Y271F (Homo sapiens) (chain not printed),glycan array binding signal (z-score),[3],-0.548
same,glycan array binding signal (z-score),[4],-0.09
FGF2 (chain not printed),glycan array binding signal (z-score),[5],3.69
Gal 3 (Homo sapiens) (chain not printed),glycan array binding signal (z-score),[6],-0.198
same,glycan array binding signal (z-score),[7],-0.033
same,glycan array binding signal (z-score),[8],-0.229
Thrombomodulin Extracellular (Homo sapiens) (chain not printed),glycan array binding signal (z-score),[9],-0.089
same,glycan array binding signal (z-score),[10],-0.119
CLEC-2 (Homo sapiens) (chain not printed),glycan array binding signal (z-score),[11],0.044
Siglec-2 (Homo sapiens) (chain not printed),glycan array binding signal (z-score),[12],-0.213
Angiogenin (Homo sapiens) (chain not printed),glycan array binding signal (z-score),[4],1.82
